This is an account of results in ChEMBL document CHEMBL4888484, “Replenishing the malaria drug discovery pipeline: Screening and hit evaluation of the MMV Hit Generation Library 1 (HGL1) against asexual blood stage Plasmodium falciparum ,using a nano luciferase reporter read-out” (2022).

The % Inhibition is the drop in the measured response relative to a control, in per cent.

Among all 150,000 compounds or so, about 540 (0.36%) showed an effect of 50% or more. The list shows a part of the results.

The test system of the assay is Plasmodium falciparum. Briefly: Primary screen in NF54 nanoGlo assay, in single point, at 2uM, 72h; a lower Z score goes with more inhibition. The assay is classed as functional, Erythrocyte. Conditions: timepoint 72 hour.
For the compound `COc1ccc(F)cc1C(=O)N1CCCO[C@@H](CN2CCCCC2)C1`, the “% Inhibition” value was -16% and the Z score came to 1.4.

For `Cc1cnc(CN2CCCC(C)C2CNC(=O)OC(C)(C)C)cn1` (centres undefined), the “% Inhibition” value is recorded as -12% and the Z score amounted to 2.59.

Turning to `C[C@@H](NC(=O)N[C@@H]1Cc2ccccc2[C@H]1O)c1cc2ccccc2o1`, the “% Inhibition” value is listed as 2% and the Z score is listed as -0.28.

`O=C(NC[C@H]1OC[C@@H](NCc2cccs2)[C@@H]1O)C1CCCC1`: the “% Inhibition” value is -6% and the Z score was found to be 0.98.

With `O=C(C1CCN(Cn2ncc3ccccc3c2=O)CC1)N1CCCCCC1`, the “% Inhibition” value is on record as 17% and the Z score is -2.21.

As for `CCOCCC(=O)Nc1c(C)cnn1CC(C)C`, the “% Inhibition” value is given as -5% and the Z score stood at 0.79.

Turning to `CCn1c(-c2cc(NC(=O)CC(C)C)[nH]n2)cc2ccccc21`, the “% Inhibition” value was -4% and the Z score is listed as 0.49.

Turning to `Cc1sc(CNC(=O)c2cnccn2)nc1-c1ccccc1`, the “% Inhibition” value was -2% and the Z score was 0.25.

Turning to `Cc1ccc(-c2coc(-c3ccc(NC(=O)c4c(F)cccc4F)cc3)n2)cc1`, the “% Inhibition” value was -8% and the Z score stood at 0.97.

As to `COc1cccc(N2CCN(C(=O)c3nnn(-c4ccc(Cl)cc4)c3C)CC2)c1`, the “% Inhibition” value is listed as 34% and the Z score is given as -3.82.

For the compound `O=C(c1cccc(S(=O)(=O)N2CCN3CCCC[C@H]3C2)c1)N1CCCC1`, the “% Inhibition” value is given as -14% and the Z score is recorded as 1.4.

Take `Cc1ccccc1-c1noc(CN2CCc3c(nc(C4CC4)n3C)C2)n1`: the “% Inhibition” value is recorded as -6% and the Z score is reported as 0.84.

Regarding `O=C([C@H]1C[C@@H](F)CN1S(=O)(=O)Cc1ccc(Cl)cc1)N1CCOCC1`, the “% Inhibition” value is on record as -7% and the Z score is reported as 0.92.

For the compound `Cc1cccc(S(=O)(=O)CC(=O)N2CCc3ccccc3C2)c1`, the “% Inhibition” value is -3% and the Z score stood at 0.3.

Regarding `CC(=O)Nc1ccc(CN2CCC[C@H](C(=O)c3cccc4ccccc34)C2)cc1`, the “% Inhibition” value is listed as -1% and the Z score was 0.24.

Consider `Cc1cccc(CC2(NC(=O)C[C@H]3CCOC3)CC2)c1`, for which the “% Inhibition” value was -6% and the Z score worked out at 0.79.

`C(=Cc1ccn(-c2ccccc2)n1)c1ccnnc1`: the “% Inhibition” value turned out to be 27% and the Z score is given as -3.67.

Turning to `CN(CC(=O)Nc1ccc(O)cc1)Cc1nc2c(cnn2C)c(=O)[nH]1`, the “% Inhibition” value was -4% and the Z score was determined as 0.6.

With `COc1cccc(C(=O)N[C@@H]2C[C@H]3OCC[C@@H]23)c1C`, the “% Inhibition” value was determined as 4% and the Z score was -0.63.

For `COc1ccnc(N2CCC[C@@]3(CCC(=O)N(CCc4ccccn4)C3)C2)n1`, the “% Inhibition” value is reported as 2% and the Z score is -0.37.

Take `CCN(CC(=O)N1CCOC2CCCCC21)C1CCS(=O)(=O)C1` (centres undefined): the “% Inhibition” value worked out at 8% and the Z score was -1.1.

As for `O=C(NCCn1cc(-c2cccnc2)cn1)[C@@H]1CC=CCC1`, the “% Inhibition” value is 15% and the Z score is listed as -1.85.

In the case of `O=C(CC[C@H]1CCCN(C(=O)c2cccs2)C1)N1CCN(c2ccccn2)CC1`, the “% Inhibition” value was -8% and the Z score came to 1.36.

Turning to `Cc1cccnc1C(=O)N1CCC([C@H]2CCN(CCc3ccccc3)C2)CC1`, the “% Inhibition” value is given as -17% and the Z score worked out at 1.56.

For `Cc1ncc(C(C)C)c(-c2ccc3c(c2)OCCO3)n1`, the “% Inhibition” value is -3% and the Z score was 0.32.

On to `CS(=O)(=O)N1CCN(c2ccc(=O)n(-c3ccc(Cl)cc3)n2)CC1`, for which the “% Inhibition” value came to 15% and the Z score is reported as -1.8.

On to `O=C(c1ccccn1)N1C[C@@H]2OCC(=O)N(CC3CC3)[C@@H]2C1`, for which the “% Inhibition” value is on record as 5% and the Z score is -0.7.

Regarding `Cc1noc(C)c1C(=O)NC[C@H](OCCO)c1cccs1`, the “% Inhibition” value was 0% and the Z score is listed as -0.03.

Consider `CC(=O)N1CCc2cc(N[C@@H](C)C(=O)Nc3ccc(N(C)C)cc3)ccc21`, for which the “% Inhibition” value was found to be 1% and the Z score is on record as -0.19.

As to `COc1ccc([C@H]2CC(=O)N(Cc3cccc(C)c3)c3c2c(C)nn3-c2nc(C)cc(C)n2)c(OC)c1`, the “% Inhibition” value is -19% and the Z score amounted to 2.72.

For `CCOC(=O)Nc1ccc2c(c1)N(C(=O)CCN(CC)CC)c1ccccc1[S@@+]2[O-]`, the “% Inhibition” value is listed as -6% and the Z score was 1.1.

As to `O=C(CC(=O)NCc1ccco1)NCc1ccco1`, the “% Inhibition” value is 3% and the Z score is reported as -0.57.

Regarding `CCc1noc2nc(CCC(=O)NCc3cccc(Cl)c3)nc(N3CCCCC3)c12`, the “% Inhibition” value was found to be 0% and the Z score was 0.02.

Consider `Cc1ccn2cnc(C(=O)N(C)Cc3csc(C(C)(C)O)n3)c2c1`, for which the “% Inhibition” value is reported as 4% and the Z score is -0.6.

As for `CC(C)NC(=O)c1csc(COc2ccc3c(c2)[C@H](c2cccc(F)c2)N(C(=O)C(C)C)CC3)n1`, the “% Inhibition” value is listed as -2% and the Z score was found to be 0.27.

On to `CCn1nnc(NCc2ccc(CC(C)C)s2)n1`, for which the “% Inhibition” value is recorded as 4% and the Z score was -0.67.

As to `O=C(NC1CCN(c2cnccn2)CC1)c1cc(-c2ccccc2)on1`, the “% Inhibition” value was -8% and the Z score is listed as 1.09.

With `Cc1csc(C(=O)NCC[C@H](O)c2cccc(Cl)c2)c1`, the “% Inhibition” value was -22% and the Z score worked out at 2.76.

For `Cc1cccc(NC(=O)C(=O)N2CCCCCCC2)n1`, the “% Inhibition” value is reported as -2% and the Z score is listed as 0.18.

`Cc1noc(C2CC2)c1N[C@@H](C)CC1CCCC1`: the “% Inhibition” value is on record as -19% and the Z score was 2.91.

As to `Cc1ccc(CNS(=O)(=O)c2cc(-c3nc(C(C)C)cs3)sc2C)cc1`, the “% Inhibition” value is -4% and the Z score is recorded as 0.49.

`Cc1cccc2c(C(=O)N[C@H]3CCOC3(C)C)coc12`: the “% Inhibition” value is given as -11% and the Z score worked out at 1.17.
